Among the data in PubChem BioAssay AID1346428 (National Center for Advancing Translational Sciences (NCATS), 2018) are activation values, retold here.

The whole screen tested about 48,000 compounds, of which about 1,200 (2.5%) were called active. Roughly 2% stayed inconclusive and do not appear here.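 How the source made its calls: active means activation of at least 60% and not above a set upper limit (about 1 call in 100 departs from these limits); inconclusive means activation of 40% to 60%, or above that upper limit; inactive means activation under 40%.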 This is one part of the list.

This assay has as its target Probable G-protein coupled receptor 32 (Homo sapiens) (UniProt O75388). Kind of assay: qHTS for Agonists of Human Resolvin D1 Receptor DRV1. Further: 0% is about no effect. To be noted: CHO-K1 GPR32 beta-arrestin PathHunter luminescence, 90 min; at 76.9 µM; hits give high values; zero percent set by DMSO-only wells. A digest of the protocol: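 Step 1: seed CHO-K1 GPR32 beta-arrestin cells, 2,500/well, overnight at 37 °C. Step 2: add compounds, 90 min at 37 °C. Step 3: detection reagent, 1 h ambient, then luminescence.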
Chain of UniProt O75388 (O75388 whole entry, looked up): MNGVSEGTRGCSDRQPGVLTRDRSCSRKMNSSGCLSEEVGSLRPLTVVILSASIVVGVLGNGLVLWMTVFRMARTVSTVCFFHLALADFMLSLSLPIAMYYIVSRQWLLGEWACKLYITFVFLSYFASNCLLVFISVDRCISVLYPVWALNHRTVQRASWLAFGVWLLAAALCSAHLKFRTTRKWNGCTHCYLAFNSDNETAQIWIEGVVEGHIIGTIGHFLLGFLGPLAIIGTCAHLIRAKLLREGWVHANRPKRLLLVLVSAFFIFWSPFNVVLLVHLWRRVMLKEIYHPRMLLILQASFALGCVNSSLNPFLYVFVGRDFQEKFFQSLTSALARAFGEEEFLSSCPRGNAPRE
Turning to `Cc1ccc(-n2ncc(C(=O)N3CCN(C4CCCCC4)CC3)c2C2CCN(C(=O)OC(C)(C)C)CC2)cc1`, the activation is inactive: -6.97%.

Regarding `O=c1cc(COc2cccc(C(F)(F)F)c2)nc2sc3c(n12)CCCC3`, the activation was inactive: -0.163%.

In the case of `O=C(c1cccc(Cl)c1)n1nc(-c2cccnc2)nc1NCc1ccccc1`, the activation was inactive: 4.85%.

For `CCOC(=O)c1c(C)oc2nc(C)nc(NCc3cccc(Cl)c3)c12`, the activation is inactive: 4.24%.

Consider `CCCCOc1cccc(NC(=O)c2cccc(C(=O)Nc3cccc(OCCCC)c3)c2)c1`, for which the activation was inactive: -3.83%.

As to `CCc1ccccc1NC(=O)c1ccc(=O)n(Cc2ccc(F)cc2)c1`, the activation was inactive: 49.4%.

`CCc1ccc(-n2c(=O)c3cccnc3n2CC(=O)Nc2cc(OC)ccc2OC)cc1`: the activation is inactive: -3.15%.

Consider `CSCCC(NS(=O)(=O)c1ccc2c(c1)oc(=O)n2C)C(=O)N1CCN(c2ccc(C(C)=O)cc2)CC1` (stereo not drawn), for which the activation is inactive: -17.4%.

For the compound `COc1cccc(C(=O)NCC(=O)OCc2cc(=O)n3ccsc3n2)c1`, the activation was inactive: 13.5%.

`Cc1ccc(C(=O)Nc2nc(-c3nnn(-c4cccc(C(F)(F)F)c4)c3C)ns2)cc1`: the activation is inactive: -3.58%.

In the case of `COc1cc(OC)cc(C(=O)Nc2nnc3n2CCS3)c1`, the activation was inactive: -78.9%.

As for `CC(C)CC(=O)Nc1nnc(SCc2cc(=O)n3ccccc3n2)s1`, the activation was inactive: 0.992%.

Turning to `Cc1ccc(CCNC(=O)c2cn(C)c3ccc(S(=O)(=O)N4CCC(C)CC4)cc3c2=O)cc1`, the activation was inactive: -6.13%.

As to `Cc1cc(C)c(NC(=O)CCCn2c(C)c3cnn(-c4ccccc4)c(=O)c3c2C)c(C)c1`, the activation is inactive: -9.26%.

Take `COc1ccccc1NC(=O)CN1C(=O)CSc2ccc(S(=O)(=O)N3CCCC3)cc21`: the activation was inactive: -18.1%.

Turning to `CCN(CC)S(=O)(=O)c1ccc2[nH]cc(C(=O)NCCc3ccccc3)c(=O)c2c1`, the activation is inactive: 32.4%.

As for `O=c1c(S(=O)(=O)c2cccc(Cl)c2)cn(Cc2ccccc2)c2cc(N3CCCCC3)c(F)cc12`, the activation is inactive: -7.11%.

As to `CCOC(=O)c1c(S(=O)(=O)NCC(=O)Nc2ccc(F)cc2C)c(C)n(C)c1C`, the activation was inactive: -11.7%.

On to `COc1cc(OC)cc(-c2nc3nc(C)c(CCC(=O)NCCC(C)C)c(C)n3n2)c1`, for which the activation was inactive: -7.55%.

With `COc1cc(OC)c(NC(=O)c2c(C)oc3nc(C)nc(N4CCOCC4)c23)cc1Cl`, the activation is inactive: -10.2%.

As for `CC(=O)C1=C(c2ccc(Br)cc2)N(C(C)=O)n2c(nnc2C2CCCCC2)S1`, the activation is inactive: -28%.

For the compound `CCn1ccc2cc(S(=O)(=O)N3CCC(C(=O)NCCc4ccccc4)CC3)ccc21`, the activation is inactive: -11.8%.

As to `O=C(NCc1ccccc1Cl)c1ccc(Cn2c(=O)c3cccn3c3cccnc32)cc1`, the activation is inactive: -3.02%.

For the compound `Cc1cccc(CNC(=O)c2ccc(C)c(-n3c(C)nc4cccnc43)c2)c1`, the activation is inactive: -5.4%.

As for `CCOc1ccc(-n2c(=O)c3c(C)c(C)sc3n(CC(=O)N3CCC(C)CC3)c2=O)cc1`, the activation was inactive: -11.6%.

Turning to `COc1cccc(-n2cc(C(=O)OCc3ccc(Cl)cc3)c3ccccc3c2=O)c1`, the activation is inactive: -19.5%.

Turning to `O=C(CSc1nnc(-c2ccccc2F)o1)Nc1ccccc1Cl`, the activation is inactive: -9.86%.

On to `CCSc1nnc2c(n1)OC(c1ccc(C)s1)Nc1ccccc1-2` (stereo not drawn), for which the activation was inactive: -18.7%.

With `COc1ccc(CCNC(=O)Cn2cc(S(=O)(=O)Cc3ccccc3Cl)c3ccccc32)cc1OC`, the activation was inactive: -6.25%.

Take `CCOc1ccccc1NC(=O)CSc1ncc(S(=O)(=O)c2ccc(C)c(C)c2)c(N)n1`: the activation was inactive: -7.85%.

As for `O=C(CSc1nc2c([nH]c3ccccc32)c(=O)n1-c1ccccc1)Nc1ccc(Cl)c(Cl)c1`, the activation was inactive: -24.2%.

In the case of `CCc1nn(CC(=O)Nc2c(C)cccc2C)c(=O)c2cc3sccc3n12`, the activation is inactive: -6.9%.

In the case of `CNC(=O)c1c(NC(=O)Cc2coc3ccc(C)cc23)sc2c1CCCC2`, the activation is inactive: -11.7%.

With `COc1ccc(-c2noc(-c3ccc(NCC4CCCO4)c([N+](=O)[O-])c3)n2)cc1` (stereo not drawn), the activation was inactive: -13.5%.

In the case of `COc1cc(NC(=O)N2CCC3(CC2)Nc2ccccc2-n2cccc23)cc(OC)c1OC`, the activation was inactive: -11.5%.

As for `COc1ccc(-c2cc(OC(=O)c3cccc(Cl)c3)c3c(C)oc(C)c3c(=O)c2)cc1`, the activation was inactive: -6.72%.

For `O=C(COc1ccc2ccccc2c1)NC1CC(=O)N(c2ccccc2)C1` (stereo not drawn), the activation is inactive: -3.81%.

As to `Cc1ccc2nc(-c3cccnc3)c(Nc3ccc(C(C)C)cc3)n2c1`, the activation was inactive: -21.9%.

Turning to `COc1ccccc1NC(=O)CSc1oc(-c2ccccc2)nc1S(=O)(=O)c1ccc(C)cc1`, the activation was inactive: -10.2%.

As to `O=C(CSc1c2c(nc3cc(Cl)ccc13)CCCC2)N1CCN(c2ccccc2F)CC1`, the activation was inactive: -22.4%.

Turning to `CCOC(=O)c1noc2ncn(CC(=O)Nc3cccc(Cl)c3)c(=O)c12`, the activation was inactive: 14.1%.

On to `Cc1cn2c(=O)c(S(=O)(=O)N3CCN(c4cc(Cl)ccc4C)CC3)c(C)nc2s1`, for which the activation was inactive: -2.46%.

In the case of `O=C(c1ccc(F)cc1)n1nc(-c2cccnc2)nc1NCc1ccc(F)cc1`, the activation is inactive: -16.7%.

As for `Cc1nc(-c2ccc(S(=O)(=O)N3CCN(c4cc(Cl)ccc4C)CC3)cc2)co1`, the activation was inactive: -14.7%.

For `O=C(NCCc1ccc(Cl)cc1)C1COc2ccccc2C1` (stereo not drawn), the activation was inactive: -30%.

As to `CCOC(=O)c1ccc(NC(=O)c2cn(-c3ccccc3)nc2-c2ccc(OC)c(OC)c2)cc1`, the activation was inactive: -1.26%.

For `O=C(Nc1cccc(-c2nc3cccnc3s2)c1)c1cccc(Br)c1`, the activation is inactive: -8.11%.

On to `CCNC(=O)CC1C(=O)N(c2ccc(C)cc2)C(=O)N1CCC(C)C` (stereo not drawn), for which the activation is inactive: -3.46%.

In the case of `O=C(Cn1c(=O)oc2cc(S(=O)(=O)N3CCCC3)ccc21)Nc1ccc(F)cc1F`, the activation was inactive: -14.3%.

In the case of `COc1ccc2c(Sc3ccc(Cl)cc3)c(C(=O)N3CCC(C)CC3)[nH]c2c1`, the activation is inactive: -19.2%.

With `N#Cc1ccccc1NC(=O)C(=O)NCCc1csc(-c2ccc(F)cc2)n1`, the activation is inactive: 28.4%.

For the compound `Cc1ccc(S(=O)(=O)c2nc(-c3cccs3)oc2SC(C)C)cc1`, the activation was inactive: -26.6%.

In the case of `CCc1cccc(NC(=O)CSc2ncc3c(n2)-c2ccccc2N(CC)S3(=O)=O)c1`, the activation is inactive: 42.5%.

Turning to `COc1ccc(NC(=O)C(C)n2nc(-c3cc(C)ccc3C)c3c(c2=O)CCCC3)cc1` (stereo not drawn), the activation was inactive: 7.73%.

`COCCNC(=O)CSc1nc2cc3c(cc2c(=O)n1Cc1ccc(C(=O)NCCc2ccc(OC)c(OC)c2)cc1)OCO3`: the activation was inactive: -7.78%.

Turning to `CCOc1ccc(NC(=O)CSc2nnc(-c3ccncc3)n2-c2ccccc2)cc1`, the activation is inactive: 38.3%.

Consider `COCCCNC(=O)CCC(=O)NNc1nc2ccccc2c2nc(-c3ccccc3)nn12`, for which the activation was inactive: 5.68%.

As for `O=C(NCCc1ccccc1)C(=O)NCC(c1ccco1)S(=O)(=O)c1ccccc1` (stereo not drawn), the activation is inactive: -6.32%.

Regarding `Nc1c[n+](N2CCOCC2)no1`, the activation is inactive: -5.77%.

As for `COc1ccc(CNC(=O)c2ccc(CSc3nc4ccncc4n3Cc3ccccc3F)cc2)cc1`, the activation was inactive: -0.926%.

For the compound `CCOc1ccc(Nc2ncnc3c2cnn3-c2ccc(F)cc2)cc1`, the activation is inactive: 7.05%.

For `CCOC(=O)C(=O)Nc1nnc2n1CCS2`, the activation is inactive: -6.49%.

For `Cc1nc(N2CCCC2)ncc1C(=O)N1CCN(c2ccc(Cl)cc2)CC1`, the activation was inactive: 3.83%.

Turning to `Cc1ccc(C)c(-n2cc(-c3ccccc3)nc2SCC(=O)Nc2ccccc2)c1`, the activation is inactive: -20.5%.

Consider `Cc1nc2c(C(=O)NCc3ccccc3Cl)cnn2c(C)c1Cc1ccccc1`, for which the activation was inactive: -0.256%.

`COc1ccc(NC(=O)Cn2c(=O)n(Cc3ccccc3)c(=O)c3oc4ccccc4c32)cc1Cl`: the activation was inactive: -11.1%.

`COc1cccc(-c2csc(-c3c(N)c(C(=O)c4ccccc4)n4ccccc34)n2)c1`: the activation was inactive: 15.8%.

Take `O=C(CSc1nc2c([nH]c3ccccc32)c(=O)n1-c1ccc(Cl)cc1)N1CCCCCC1`: the activation was inactive: 34.2%.

Turning to `Cc1nc2n(c(=O)c1CCN1CCC(c3noc4cc(F)ccc34)CC1)CCC[C@H]2O`, the activation is inactive: 8.41%.

Regarding `Cn1cc(S(=O)(=O)N2CCCCC2)cc1C(=O)N1CCN(c2ccccc2F)CC1`, the activation is inactive: 6.18%.

On to `CCCCOc1cc(C(=O)OCCN(CC)CC)ccc1N`, for which the activation is inactive: 0.423%.

Take `CCOC(=O)c1ccccc1NC(=O)Cn1c(=O)n(CCCC(=O)NCc2ccc3c(c2)OCO3)c(=O)c2ccccc21`: the activation was inactive: -8.21%.

With `COCCCNC(=O)c1cnn(-c2ccc(F)cc2F)c1C1CCNCC1`, the activation is inactive: 1.71%.

With `COc1ccc(NC(=O)CC2C(=O)N(c3ccc(F)cc3)C(=O)N2CCc2sccc2C)cc1` (stereo not drawn), the activation is inactive: -0.922%.

Regarding `CCOC(=O)c1cc(-c2ccccc2)n(CCC(=O)Nc2cc(C)cc(C)c2)c1C`, the activation was inactive: -20.9%.

In the case of `Cc1ccc2scc(N3CCCCC3)c(=O)c2c1`, the activation is inactive: -19.4%.

For `Nc1ccc2nc(-c3ccc(O)cc3)sc2c1`, the activation was inactive: 14.8%.

`O=C(Cn1c(=O)oc2cc(S(=O)(=O)NCc3ccccc3)ccc21)NCc1ccccc1Cl`: the activation is inactive: 16.9%.

`Cc1ccc(N2CCN(C(=O)C3CCN(c4ncnc5c4nc4n5CCCCC4)CC3)CC2)c(C)c1`: the activation is inactive: -3.4%.

As for `Cc1ccc2nc(NC(=O)c3nc(SCc4ccccc4C)ncc3Cl)sc2c1`, the activation was inactive: 19.4%.

As for `COc1cc([C@H]2Oc3cc([C@H]4Oc5cc(O)cc(O)c5C(=O)[C@@H]4O)ccc3O[C@@H]2CO)ccc1O`, the activation was inactive: -6.72%.

Consider `CN(Cc1ccccc1)C(=O)C1CCC(CNS(=O)(=O)c2ccc3c(c2)CCCC(=O)N3)CC1` (stereo not drawn), for which the activation was inactive: 3.99%.

Turning to `N#C/C(=C1/SC[C@@H](c2ccc(Cl)cc2Cl)S1)n1ccnc1`, the activation is inactive: -37.5%.
